Results: PubChem BioAssay AID1671188 (National Center for Advancing Translational Sciences (NCATS), 2021)
The campaign covered roughly 100,000 compounds. About 250 (0.25%) were called active. This list was built around the results that the source calls inconclusive (neither active nor inactive); the mix of calls is not that of the screen. Calls come from the whole dose curve; as a rule, active = well fitted inhibition curve with a large enough effect; inconclusive = small, poorly fitted or top-dose-only effect; inactive = flat fitted curve, though single readings scatter. No potency is given beside an inconclusive call; the fits are too rough.

target: Alanine aminotransferase 2 (Homo sapiens) (UniProt Q8TD30); assay: Primary qHTS assay for inhibitors of Glutamate pyruvate transaminase 2 (GPT2); settings: Recombinant GPT2, coupled pyruvate oxidase/HRP Amplex Red fluorescence; activity change, negative = inhibition: at 57.7 µM (top of the series) unless noted; series mostly up to 57.7 µM; note: nearly all actives have a fitted effect of over 60% in size
Chain of UniProt Q8TD30 (Q8TD30 whole entry, looked up): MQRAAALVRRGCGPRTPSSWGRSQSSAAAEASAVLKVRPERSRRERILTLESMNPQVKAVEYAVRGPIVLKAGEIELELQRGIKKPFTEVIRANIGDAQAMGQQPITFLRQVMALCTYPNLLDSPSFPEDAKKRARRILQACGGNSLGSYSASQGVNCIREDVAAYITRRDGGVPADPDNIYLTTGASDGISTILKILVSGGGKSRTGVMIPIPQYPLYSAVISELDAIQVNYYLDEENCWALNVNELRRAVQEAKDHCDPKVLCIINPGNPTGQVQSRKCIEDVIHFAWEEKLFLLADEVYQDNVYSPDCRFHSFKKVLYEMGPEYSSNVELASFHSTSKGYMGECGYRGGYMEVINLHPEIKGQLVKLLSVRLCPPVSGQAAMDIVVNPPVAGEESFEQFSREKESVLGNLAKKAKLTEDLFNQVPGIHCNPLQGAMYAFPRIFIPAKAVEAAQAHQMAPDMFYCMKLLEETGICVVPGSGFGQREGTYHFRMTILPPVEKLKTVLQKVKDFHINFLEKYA
Procedure, shortened: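 Inhibition is scored from Amplex Red fluorescence generated when pyruvate oxidase and HRP act on pyruvate released by GPT2. Reactions contain 10ng/uL enzyme, 250uM a-KG and 2mM L-alanine and run 30 min at room temperature.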
% is set by controls: 0 for no effect and ±100 for the full control effect; potency is the fitted concentration of half-maximal effect; tags give direction and shape of the fitted curve.

SMILES | Potency | activity change, negative = inhibition | outcome
OCc1cc(CC2(NCC3CC3)COC2)no1 | inconclusive [inhibitor, partial curve, poor fit] | – | –
CCOC(=O)C1CCN(C(=O)c2nc3sccn3c2-c2cccc(C#N)c2)CC1 | inconclusive [inhibitor, single point] | – | –
COc1cccc(CNC(=O)C2CCCN2Cc2ccc(-c3cccc(OC)c3)cc2)c1 (stereo not given) | – | inactive: -3.63% | –
Cc1nc2c(c(-c3ccc(O)cc3)n1)CN(C(=O)C(C)(C)C)CC2 | – | – | inactive [at 88.5 µM]
O=C1CC(NCc2cc(F)ccc2-n2cccn2)CN1Cc1cccc(F)c1 (stereo not given) | inconclusive [inhibitor, single point] | – | –
O=C(CCCc1c[nH]c2ccccc12)N1CCC2(CC1)CC(CCOCC1CC1)CCO2 (stereo not given) | inconclusive [inhibitor, single point] | – | –
COCc1cn2c(=O)n(C)cc(-c3ccnc(OC)c3)c2n1 | inconclusive [inhibitor, single point] | – | –
COCCn1ccc2c(C3=CCOCC3)nc(-c3cccc(NC(C)=O)c3)cc21 | inconclusive [inhibitor, single point] | – | –
O=C1C(CCS(=O)c2ccccc2)C(=O)N(c2ccccc2)N1c1ccccc1 (stereo not given) | – | – | inactive
CN1c2cc(C(=O)Nc3ccc(C(F)(F)F)cc3)ccc2C(=O)N2CCCCCC21 (stereo not given) | – | – | inactive
Cc1ccc(COC(=O)N2CC[C@@H](CNc3ncccn3)[C@@H](F)C2)cc1 | inconclusive [inhibitor, single point] | – | –
O=C1CC(c2ccccc2)N(Cc2ccncc2)CCCN(C(=O)NCc2ccc(F)cc2)CCN1 (stereo not given) | inconclusive [inhibitor, full curve, poor fit] | – | –
COc1ccc(C(=O)N2CCCN(c3cc(-c4ccccc4)[nH]n3)CC2)cc1F | inconclusive [inhibitor, partial curve, poor fit] | – | –
CC(C)C[C@@H]1N[C@H](C(=O)NCc2ccccn2)Cc2cn(Cc3ccncc3)c3cccc1c23 | inconclusive [inhibitor, full curve, poor fit] | – | –
O=C(CCC1CCN(Cc2ccc(Cl)s2)CC1)N1CCN(c2ccccc2)CC1 | inconclusive [inhibitor, single point] | – | –
O=C(Nc1nn(-c2cccc(F)c2)c2cccc(N3CCOC3=O)c12)C1CCC1 | inconclusive [inhibitor, single point] | – | –
COCCNC(=O)[C@@H]1Cc2cn(Cc3cccnc3)c3cccc(c23)[C@H](CC(C)C)N1 | inconclusive [inhibitor, partial curve, poor fit] | – | –
CCNC(=O)CC1COCCN1C(=O)c1csc(-c2cccs2)n1 (stereo not given) | – | – | inactive
Oc1ccc(CCNCCCCCCNCCc2ccccc2)cc1O | inconclusive [inhibitor, single point] | – | –
CCOC(=O)c1cccc(NC(=O)O[C@@H]2CO[C@H]3[C@@H]2OC[C@@H]3NS(=O)(=O)c2cc(OC)ccc2OC)c1 | inconclusive [inhibitor, single point] | – | –
Cc1ccccc1-c1noc(-c2nnn3c2COC(c2ccc(F)cc2)C3)n1 (stereo not given) | inconclusive [inhibitor, single point] | – | –
COc1ccc(-c2cc(-c3cnn(C)c3)cn3cncc23)cc1 | inconclusive [inhibitor, full curve, poor fit] | – | –

SMILES | Potency | activity change, negative = inhibition | outcome
COc1cccc(NC(=O)N[C@H](C)c2onc(-c3ccc(F)cc3)c2C(=O)O)c1 | inconclusive [inhibitor, single point] | – | –
CCc1nc2c(c(-c3ccc(O)cc3)n1)CN(C(=O)c1ccc(F)cc1)CC2 | inconclusive [inhibitor, partial curve, poor fit] | – | –
COc1c(C)cccc1C(=O)NCC1CCN(c2cnn(C)c(=O)c2)C1 (stereo not given) | inconclusive [inhibitor, single point] | – | –
c1cnc2nc(C3CCCCN3)[nH]c2c1 (stereo not given) | inconclusive [inhibitor, single point] | – | –
OCCCn1cnc(-c2ccccc2)c1-c1ccc(-c2ccn[nH]2)o1 | inconclusive [inhibitor, single point] | – | –
COc1ccc(Cc2nc3nccc(-c4ccc(OC)c(OC)c4)n3n2)cc1 | – | – | inactive
O=C1Nc2ccccc2CC12CCN(C1COC1)C2 (stereo not given) | inconclusive [inhibitor, single point] | – | –
O=C(CCCc1c[nH]c2ccccc12)NCC(=O)N1CCCCCCNC(=O)CC1c1ccccc1 (stereo not given) | – | – | inactive
CN1C(=O)[C@H]2CN(Cc3ccc(Cl)c(F)c3)C[C@H]2C1=O | – | – | inactive
COC(=O)N[C@H]1[C@H](OC(=O)c2ccccc2)[C@@H]2O[C@H]1c1ccccc12 | – | – | inactive [at 27.3 µM]
Cn1cc(CN2CCOC[C@H]2c2ncc(-c3cccc(F)c3)[nH]2)c2ccccc21 | – | inactive: -3.28% [at 88.5 µM] | –
COc1ccc(C(=O)N[C@@H]2CN(Cc3ccccc3)C[C@H]2CO)cn1 | – | – | inactive
Cc1cc(=O)n(CC(=O)Nc2ccccc2C)c(N2CCc3ccccc3C2)n1 | – | – | inactive
COc1ccccc1-c1noc(CCCC(=O)N2CCc3nc[nH]c3C2)n1 | – | – | inactive
CN(C)c1cccc(C(=O)NCC2CCN(c3cc(-c4ccccc4)[nH]n3)CC2)c1 | inconclusive [inhibitor, single point] | – | –
CCN1C(=O)CCN(C(=O)CCOC)CC12CCOCC2 | inconclusive [inhibitor, full curve, poor fit] | – | –
O=c1c2nc(-c3ccccc3)ccc2ncn1-c1ccc(F)cc1F | inconclusive [inhibitor, partial curve, poor fit] | – | –
O=C1N(Cc2ccccn2)C[C@H]2CN(Cc3ccc(C(F)(F)F)cc3)CCN12 | – | inactive: 0.86% [at 88.5 µM] | –
CSc1ccc(-c2cccc(C(=O)NCC(=O)NCc3ccc4c(c3)OCO4)c2)cc1 | – | – | inactive
CCc1nc(C)c(C(=O)N2CCOC(CCCC(C)C)C2)o1 (stereo not given) | inconclusive [inhibitor, single point] | – | –
CN1C(=O)[C@@H]2C[C@@H](O)CN2C2(CN(C3CCC(F)(F)CC3)C2)C1=O | inconclusive [inhibitor, partial curve, poor fit] | – | –
CC1=C2[C@@H]([C@H](C)CC[C@H]2/C=C(\C)C(=O)O)[C@H](O)C1 | inconclusive [inhibitor, single point] | – | –

SMILES | Potency | activity change, negative = inhibition | outcome
C#CCNC(=O)[C@@H]1Cc2cn(Cc3c(C)noc3C)c3cccc(c23)[C@H](CC(C)C)N1 | inconclusive [inhibitor, partial curve, poor fit] | – | –
CC(=O)N[C@H]1CCN(C(=O)C[C@@H]2[C@H](O)CCC3[C@](C)(CO)[C@H](OC(=O)Nc4cccc(F)c4)CC[C@]32C)C1 (stereo not given in full) | inconclusive [inhibitor, single point] | – | –
CN1C[C@H](NCc2cccnc2)CCC[C@@H](C(=O)NC2CC2)CC1=O | – | – | inactive [at 88.5 µM]
O=C(Cc1cccnc1)N1CCC2(CC1)CN(Cc1ccccc1)CC2CO (stereo not given) | – | inactive: 0.611% | –
O=S(=O)(N[C@@H]1C[C@H](Cn2cc(C3CC3)nn2)[C@@H](O)[C@H]1O)c1ccccc1 | inconclusive [inhibitor, single point] | – | –
O=C(c1ccsc1)N1CCCN(c2cc(-c3ccc(Cl)cc3)[nH]n2)CC1 | inconclusive [inhibitor, partial curve, poor fit] | – | –
Cc1ccc(NC(=O)C2CCN(c3cc(C(F)(F)F)ncn3)CC2)cc1 | – | – | inactive
O=C(NC1CCN(c2nccc(Nc3ccccc3F)n2)CC1)c1ccccc1F | – | inactive: -9.98% | –
CC(C)c1noc(-c2cn(C3CCN(C(=O)C4(c5ccccc5)CC4)CC3)nn2)n1 | inconclusive [inhibitor, partial curve, poor fit] | – | –
COc1cc(N2CCC(N)CC2)ccc1Nc1ncc(Cl)c(-c2c[nH]c3ccccc23)n1 | inconclusive [inhibitor, partial curve, poor fit] | – | –
COc1ncccc1-c1ccnc(-c2nnc(C)n2C2CCCCC2)c1 | inconclusive [inhibitor, single point] | – | –
CN1[C@@H](CCC(=O)N2CCC(O)CC2)CNC(=O)[C@@H]2[C@H]1CCN2Cc1ccc(S(C)(=O)=O)cc1 | inconclusive [inhibitor, full curve, poor fit] | – | –
Cc1cc(CN(C)C(=O)c2csc3nc(-c4cccc(C(F)(F)F)c4)cn23)on1 | inconclusive [inhibitor, single point] | – | –
O=C(c1ccccc1)N1CCC(Oc2cccc(F)c2)C1 (stereo not given) | inconclusive [inhibitor, single point] | – | –
COc1ccccc1C(=O)NC1CCN(c2cn[nH]c(=O)c2)CC1 | inconclusive [inhibitor, single point] | – | –
COc1ccc(Cl)cc1C(=O)N1CCCN(c2cc(-c3ccc(Br)cc3)[nH]n2)CC1 | inconclusive [inhibitor, partial curve, poor fit] | – | –
CCc1ocnc1C(=O)N1C[C@H]2OC(=O)N(CCCN3CCOCC3)[C@H]2C1 | – | inactive: 2.29% | –
N#Cc1cccnc1-c1ccc(C(=O)N2CCC(NC(=O)Cc3ccc(F)cc3)CC2)cc1 | – | – | inactive
CC(=O)N1CCCn2nc(C)c(-c3ccccc3OCc3ccccc3)c21 | – | inactive: -3.65% [at 88.5 µM] | –
COc1cccc(-c2cccc(CCOc3cnc4c(ccn4CC(=O)O)c3)c2)c1 | inconclusive [inhibitor, partial curve, poor fit] | – | –
CN(Cc1ccc(CN2CCCC(O)(CO)C2)o1)S(C)(=O)=O (stereo not given) | inconclusive [inhibitor, single point] | – | –
